Measurements taken from the supplement of paper PMC12217912.
This is one part of the list. The full chains were built here from the parent and the listed change. Values near 0.05 are background.

B1: TEV protease; numbered along this chain (parent)
chain: MGESLFKGPRDYNPISSSICHLTNESDGHTTSLYGIGFGPFIITNKHLFRRNNGTLVVQSLHGVFKVKDTTTLQQHLVDGRDMIIIRMPKDFPPFPQKLKFREPQREERICLVTTNFQTKSMSSMVSDTSCTFPSGDGIFWKHWIQTKDGQCGSPLVSTRDGFIVGIHSASNFTNTNNYFTSVPKNFMELLTNQEAQQWVSGWRLNADSVLWGGHKVFMVKPEEPFQPVKEATQL

Variants of: B1
Test: raw area under fraction-flipped curve 0-4 h after induction (AUC4h, not background-subtracted), DNA-recorder readout of cleavage of the substrate (dimensionless); higher = more cleavage of the substrate by the protease variant
Conditions: temperature: 34 °C; time window: 0-4 h after rhamnose induction
Experimental: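 In vivo DNA recorder in E. coli TOP10(DE3) ΔrhaA at 34 °C. Each TEVp single-site mutant (parent TEVp 0) is paired with a single-site variant of the 7-mer TEVs (canonical ENLYFQ|S). The substrate sits between flexible linkers in a Bxb1-sfGFP-TEVs-SsrA fusion, so cleavage stabilises Bxb1 and speeds flipping of a recombination array, read by NGS. The value is the raw area under the fraction-flipped curve over 0-4 h after rhamnose induction (AUC4h), with ≥20 reads per time point. It is not background-subtracted; inactive controls average about 0.047.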
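Further: Bxb1 expression induced with 0.2% (w/v) L-rhamnose at OD600 near 0.5, cultures sampled hourly, flipped fraction per protease–substrate barcode pair counted by paired-end Illumina sequencing.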

Row | Variant | area with substrate ENLYFAS | area with substrate ENLYFCS | area with substrate ENLYFES | area with substrate ENLYFFS | area with substrate ENLYFIS | area with substrate ENLYFKS | area with substrate ENLYFLS | area with substrate ENLYFMS | area with substrate ENLYFNS | area with substrate ENLYFPS | area with substrate ENLYFRS | area with substrate ENLYFSS | area with substrate ENLYFVS | area with substrate ENLYFWS | area with substrate ENLYFHS | area with substrate ENLYFTS | area with substrate ENLYFYS | area with substrate ENLYFDS | area with substrate ENLYFGS
1 | MGESLFKGPRDYNPISSSICHLTNESDGHTTSLYGIGFGPFIITNKHLFRRNNGTLVVQSLHGVFKVKDTTTLQQHLVDGRDMIIIRMPKDFPPFPQKLKFREPQREERICLVTTNFQTKSMSSMVSDTSCTFPSKDGIFWKHWIQTKDGQCGSPLVSTRDGFIVGIHSASNFTNTNNYFTSVPKNFMELLTNQEAQQWVSGWRLNADSVLWGGHKVFMVKPEEPFQPVKEATQL [G136K] | 0.0711 | 0.0706 | 0.0677 | 0.0615 | 0.0458 | 0.0513 | 0.0604 | 0.0665 | 0.0727 | 0.07 | 0.0626 | 0.0595 | 0.0617 | 0.0561 |  |  |  |  | 
2 | MGESLFKGPRDYNPISSSICHLTNESDGHTTSLYGIGFGPFIITNKHLFRRNNGTLVVQSLHGVFKVKDTTTLQQHLVDGRDMIIIRMPKDFPPFPQKLKFREPQREERICLVTTNFQTKSMSSMVSDTSCTFPSGDGIFWKHWIQTKDCQCGSPLVSTRDGFIVGIHSASNFTNTNNYFTSVPKNFMELLTNQEAQQWVSGWRLNADSVLWGGHKVFMVKPEEPFQPVKEATQL [G150C] | 0.0638 | 0.0576 | 0.0624 | 0.0644 | 0.0651 | 0.0626 | 0.0618 | 0.0637 | 0.0495 | 0.0688 | 0.0362 |  | 0.0587 | 0.0545 | 0.0525 | 0.0597 | 0.0464 |  | 
3 | MGESLFKGPRDYNPISSSICHLTNESDGHTTSLYGIGFGPFIITNKHLFRRNNGTLVVQSLHGVFKVKDTTTLQQHLVDGRDMIIIRMPKDFPPFPQKLKFREPQREERICLVTTNFQTKSMSSMVSDTSCTFPSGDGIFWKHWIQTKDTQCGSPLVSTRDGFIVGIHSASNFTNTNNYFTSVPKNFMELLTNQEAQQWVSGWRLNADSVLWGGHKVFMVKPEEPFQPVKEATQL [G150T] | 0.0609 | 0.0665 | 0.0585 | 0.0695 | 0.0585 | 0.0553 | 0.0601 | 0.0527 | 0.0564 | 0.0662 | 0.0608 | 0.0518 | 0.0495 | 0.0559 | 0.0592 | 0.0569 | 0.0551 | 0.0397 | 
4 | MGESLFKGPRDYNPISSSICHLTNESDGHTTSLYGIGFGPFIITNKHLFRRNNGTLVVQSLHGVFKVKDTTTLQQHLVDGRDMIIIRMPKDFPPFPQKLKFREPQREERICLVTTNFQTKSMSSMVSDTSCTFPSGDGIFWKHWIQTKRGQCGSPLVSTRDGFIVGIHSASNFTNTNNYFTSVPKNFMELLTNQEAQQWVSGWRLNADSVLWGGHKVFMVKPEEPFQPVKEATQL [D149R] | 0.0531 | 0.0566 | 0.0556 | 0.0697 | 0.0552 |  |  | 0.0569 |  | 0.0602 |  |  |  | 0.0596 |  | 0.0713 |  |  | 
5 | MGESLFKGPRDYNPISSSICHLTNESDGHTTSLYGIGFGPFIITNKHLFRRNNGTLVVQSLHGVFKVKDTTTLQQHLVDGRDMIIIRMPKDFPPFPQKLKFREPQREERICLVTTNFQTKSMSSMVSDTSCTFPSGDGIFWKHWIQTKGGQCGSPLVSTRDGFIVGIHSASNFTNTNNYFTSVPKNFMELLTNQEAQQWVSGWRLNADSVLWGGHKVFMVKPEEPFQPVKEATQL [D149G] | 0.0483 | 0.0433 | 0.0702 | 0.0786 | 0.0496 | 0.0704 | 0.0711 | 0.0545 |  | 0.0611 | 0.0565 | 0.043 | 0.0255 | 0.0564 | 0.0591 |  |  |  | 
6 | MGESLFKGPRDYNPISSSICHLTNESDGHTTSLYGIGFGPFIITNKHLFRRNNGTLVVQSLHGVFKVKDTTTLQQHLVDGRDMIIIRMPKDFPPFPQKLKFREPQREERICLVTTNFQTKSMSSMVSDTSCTFPSGDGIFWKHDIQTKDGQCGSPLVSTRDGFIVGIHSASNFTNTNNYFTSVPKNFMELLTNQEAQQWVSGWRLNADSVLWGGHKVFMVKPEEPFQPVKEATQL [W144D] | 0.0649 | 0.0606 | 0.0634 | 0.0628 | 0.0588 | 0.0592 | 0.0688 | 0.0699 | 0.0572 | 0.0753 | 0.062 |  |  | 0.0364 |  | 0.0604 | 0.0517 |  | 0.0569
7 | MGESLFKGPRDYNPISSSICHLTNESDGHTTSLYGIGFGPFIITNKHLFRRNNGTLVVQSLHGVFKVKDTTTLQQHLVDGRDMIIIRMPKDFPPFPQKLKFREPQREERICLVTTNFQTKSMSSMVSDTSCTFPSGDGIFWKHGIQTKDGQCGSPLVSTRDGFIVGIHSASNFTNTNNYFTSVPKNFMELLTNQEAQQWVSGWRLNADSVLWGGHKVFMVKPEEPFQPVKEATQL [W144G] | 0.0547 | 0.0572 | 0.0673 | 0.0739 | 0.0692 | 0.0474 |  | 0.0648 | 0.0666 | 0.0714 | 0.0581 | 0.0501 | 0.0568 |  | 0.0719 | 0.069 | 0.0694 |  | 0.0596
8 | MGESLFKGPRDYNPISSSICHLTNESDGHTTSLYGIGFGPFIITNKHLFRRNNGTLVVQSLHGVFKVKDTTTLQQHLVDGRDMIIIRMPKDFPPFPQKLKFREPQREERICLVTTNFQTKSMSSMVSDTSCTFPSGDGIFWKHAIQTKDGQCGSPLVSTRDGFIVGIHSASNFTNTNNYFTSVPKNFMELLTNQEAQQWVSGWRLNADSVLWGGHKVFMVKPEEPFQPVKEATQL [W144A] | 0.0714 | 0.0917 | 0.0819 | 0.0829 | 0.0609 | 0.0769 | 0.0683 | 0.0728 |  | 0.0662 |  | 0.0785 |  |  | 0.0513 | 0.0325 | 0.0543 |  | 
9 | MGESLFKGPRDYNPISSSICHLTNESDGHTTSLYGIGFGPFIITNKHLFRRNNGTLVVQSLHGVFKVKDTTTLQQHLVDGRDMIIIRMPKDFPPFPQKLKFREPQREERICLVTTNFQTKSMSSMVSDTSCTFPSGDGIFWKHFIQTKDGQCGSPLVSTRDGFIVGIHSASNFTNTNNYFTSVPKNFMELLTNQEAQQWVSGWRLNADSVLWGGHKVFMVKPEEPFQPVKEATQL [W144F] | 0.058 | 0.0613 |  | 0.0785 | 0.0601 | 0.0869 |  |  | 0.0745 | 0.0643 | 0.055 |  |  |  | 0.064 |  |  |  | 
